Some of the results follow.
Tests used:
Experiment in all cases: glycan array binding signal (z-score within array); higher = stronger binding
Settings in all cases: glycan notation: IUPAC condensed, linker removed
[1] = target: Gal(b1-4)GlcNAc(b1-3)Gal(b1-4)GlcNAc(b1-2)Man(a1-3)[Gal(b1-4)GlcNAc(b1-3)Gal(b1-4)GlcNAc(b1-2)Man(a1-6)]Man(b1-4)GlcNAc(b1-4)[Fuc(a1-6)]GlcNAc
In short: (§1)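 Glycan array binding is given as a within-array Z-score, which can be read as non-binding when negative. The arrays, 3228 of them, came from the Consortium for Functional Glycomics database and were retained only where the protein sequence was available. Z-scores were averaged across arrays of the same protein sequence at different concentrations or buffers and across linkers.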

[2] = target: Gal(b1-4)GlcNAc(b1-3)Gal(b1-4)GlcNAc(b1-2)[Gal(b1-4)GlcNAc(b1-3)Gal(b1-4)GlcNAc(b1-6)]Man(a1-6)[Gal(b1-4)GlcNAc(b1-3)Gal(b1-4)GlcNAc(b1-2)Man(a1-3)]Man(b1-4)GlcNAc(b1-4)GlcNAc
In short: as §1

[3] = target: Gal(b1-4)GlcNAc(b1-3)Gal(b1-4)GlcNAc(b1-2)[Gal(b1-4)GlcNAc(b1-3)Gal(b1-4)GlcNAc(b1-6)]Man(a1-6)[Gal(b1-4)GlcNAc(b1-3)Gal(b1-4)GlcNAc(b1-2)Man(a1-3)]Man(b1-4)GlcNAc(b1-4)[Fuc(a1-6)]GlcNAc
In short: as §1

[4] = target: Gal(b1-4)GlcNAc(b1-3)Gal(b1-4)GlcNAc(b1-3)Gal(b1-4)GlcNAc
In short: as §1

[5] = target: Gal(b1-4)GlcNAc(b1-3)Gal(b1-4)GlcNAc(b1-3)Gal(b1-4)GlcNAc(b1-2)Man(a1-3)[Gal(b1-4)GlcNAc(b1-3)Gal(b1-4)GlcNAc(b1-3)Gal(b1-4)GlcNAc(b1-2)Man(a1-6)]Man(b1-4)GlcNAc(b1-4)GlcNAc
In short: as §1

[6] = target: Gal(b1-4)GlcNAc(b1-3)Gal(b1-4)GlcNAc(b1-3)Gal(b1-4)GlcNAc(b1-2)Man(a1-3)[Gal(b1-4)GlcNAc(b1-3)Gal(b1-4)GlcNAc(b1-3)Gal(b1-4)GlcNAc(b1-2)Man(a1-6)]Man(b1-4)GlcNAc(b1-4)[Fuc(a1-6)]GlcNAc
In short: as §1

[7] = target: Gal(b1-4)GlcNAc(b1-3)Gal(b1-4)GlcNAc(b1-3)Gal(b1-4)GlcNAc(b1-2)[Gal(b1-4)GlcNAc(b1-3)Gal(b1-4)GlcNAc(b1-3)Gal(b1-4)GlcNAc(b1-6)]Man(a1-6)[Gal(b1-4)GlcNAc(b1-3)Gal(b1-4)GlcNAc(b1-3)Gal(b1-4)GlcNAc(b1-2)Man(a1-3)]Man(b1-4)GlcNAc(b1-4)[Fuc(a1-6)]GlcNAc
In short: as §1

[8] = target: Gal(b1-4)GlcNAc(b1-3)Gal(b1-4)GlcNAc(b1-3)Gal(b1-4)GlcNAc(b1-3)Gal(b1-4)GlcNAc(b1-2)Man(a1-3)[Gal(b1-4)GlcNAc(b1-3)Gal(b1-4)GlcNAc(b1-3)Gal(b1-4)GlcNAc(b1-3)Gal(b1-4)GlcNAc(b1-2)Man(a1-6)]Man(b1-4)GlcNAc(b1-4)GlcNAc
In short: as §1

[9] = target: Gal(b1-4)GlcNAc(b1-3)Gal(b1-4)GlcNAc(b1-3)Gal(b1-4)GlcNAc(b1-3)Gal(b1-4)GlcNAc(b1-2)Man(a1-3)[Gal(b1-4)GlcNAc(b1-3)Gal(b1-4)GlcNAc(b1-3)Gal(b1-4)GlcNAc(b1-3)Gal(b1-4)GlcNAc(b1-2)Man(a1-6)]Man(b1-4)GlcNAc(b1-4)[Fuc(a1-6)]GlcNAc
In short: as §1

[10] = target: Gal(b1-4)GlcNAc(b1-3)Gal(b1-4)GlcNAc(b1-3)Gal(b1-4)GlcNAc(b1-3)Gal(b1-4)GlcNAc(b1-2)[Gal(b1-4)GlcNAc(b1-3)Gal(b1-4)GlcNAc(b1-3)Gal(b1-4)GlcNAc(b1-3)Gal(b1-4)GlcNAc(b1-6)]Man(a1-6)[Gal(b1-4)GlcNAc(b1-3)Gal(b1-4)GlcNAc(b1-3)Gal(b1-4)GlcNAc(b1-3)Gal(b1-4)GlcNAc(b1-2)Man(a1-3)]Man(b1-4)GlcNAc(b1-4)[Fuc(a1-6)]GlcNAc
In short: as §1

[11] = target: Gal(b1-4)GlcNAc(b1-3)Gal(b1-4)GlcNAc(b1-3)Gal(b1-4)GlcNAc(b1-3)Gal(b1-4)GlcNAc(b1-3)Gal(b1-4)GlcNAc(b1-2)Man(a1-3)[Gal(b1-4)GlcNAc(b1-3)Gal(b1-4)GlcNAc(b1-3)Gal(b1-4)GlcNAc(b1-3)Gal(b1-4)GlcNAc(b1-3)Gal(b1-4)GlcNAc(b1-2)Man(a1-6)]Man(b1-4)GlcNAc(b1-4)GlcNAc
In short: as §1

[12] = target: Gal(b1-4)GlcNAc(b1-3)Gal(b1-4)GlcNAc(b1-3)Gal(b1-4)GlcNAc(b1-3)Gal(b1-4)GlcNAc(b1-3)Gal(b1-4)GlcNAc(b1-2)Man(a1-3)[Gal(b1-4)GlcNAc(b1-3)Gal(b1-4)GlcNAc(b1-3)Gal(b1-4)GlcNAc(b1-3)Gal(b1-4)GlcNAc(b1-3)Gal(b1-4)GlcNAc(b1-2)Man(a1-6)]Man(b1-4)GlcNAc(b1-4)[Fuc(a1-6)]GlcNAc
In short: as §1

[13] = target: Gal(b1-4)GlcNAc(b1-3)Gal(b1-4)GlcNAc(b1-3)Gal(b1-4)GlcNAc(b1-3)Gal(b1-4)GlcNAc(b1-3)Gal(b1-4)GlcNAc(b1-2)[Gal(b1-4)GlcNAc(b1-3)Gal(b1-4)GlcNAc(b1-3)Gal(b1-4)GlcNAc(b1-3)Gal(b1-4)GlcNAc(b1-3)Gal(b1-4)GlcNAc(b1-6)]Man(a1-6)[Gal(b1-4)GlcNAc(b1-3)Gal(b1-4)GlcNAc(b1-3)Gal(b1-4)GlcNAc(b1-3)Gal(b1-4)GlcNAc(b1-3)Gal(b1-4)GlcNAc(b1-2)Man(a1-3)]Man(b1-4)GlcNAc(b1-4)[Fuc(a1-6)]GlcNAc
In short: as §1

[14] = target: Gal(b1-4)GlcNAc(b1-3)Gal(b1-4)GlcNAc(b1-3)Gal(b1-4)GlcNAc(b1-3)Gal(b1-4)GlcNAc(b1-3)Gal(b1-4)GlcNAc(b1-3)Gal(b1-4)GlcNAc(b1-2)Man(a1-3)[Gal(b1-4)GlcNAc(b1-3)Gal(b1-4)GlcNAc(b1-3)Gal(b1-4)GlcNAc(b1-3)Gal(b1-4)GlcNAc(b1-3)Gal(b1-4)GlcNAc(b1-3)Gal(b1-4)GlcNAc(b1-2)Man(a1-6)]Man(b1-4)GlcNAc(b1-4)GlcNAc
In short: as §1

[15] = target: Gal(b1-4)GlcNAc(b1-3)Gal(b1-4)GlcNAc(b1-3)GalNAc
In short: as §1

[16] = target: Gal(b1-4)GlcNAc(b1-3)Gal(b1-4)GlcNAc(b1-3)[Gal(b1-4)GlcNAc(b1-3)Gal(b1-4)GlcNAc(b1-6)]GalNAc
In short: as §1

[17] = target: Gal(b1-4)GlcNAc(b1-3)Gal(b1-4)GlcNAc(b1-6)[Gal(b1-3)]GalNAc
In short: as §1

[18] = target: Gal(b1-4)GlcNAc(b1-3)Gal(b1-4)[Fuc(a1-3)]GlcNAc(b1-3)Gal(b1-4)[Fuc(a1-3)]GlcNAc
In short: as §1

[19] = target: Gal(b1-4)GlcNAc(b1-3)GalNAc
In short: as §1

[20] = target: Gal(b1-4)GlcNAc(b1-3)[Fuc(a1-3)GlcNAc(b1-6)]Gal(b1-4)Glc
In short: as §1

[21] = target: Gal(b1-4)GlcNAc(b1-3)[Gal(b1-4)GlcNAc(b1-6)]Gal(b1-4)GlcNAc
In short: as §1

[22] = target: Gal(b1-4)GlcNAc(b1-3)[GlcNAc(b1-6)]Gal(b1-4)GlcNAc
In short: as §1

[23] = target: Gal(b1-4)GlcNAc(b1-6)Gal(b1-4)GlcNAc
In short: as §1

[24] = target: Gal(b1-4)GlcNAc(b1-6)GalNAc
In short: as §1

[25] = target: Gal(b1-4)GlcNAc(b1-6)[Gal(b1-3)]GalNAc
In short: as §1

[26] = target: Gal(b1-4)GlcNAc(b1-6)[Gal(b1-4)GlcNAc(b1-3)]GalNAc
In short: as §1

Gal(b1-4)GlcNAc6P = target: Gal(b1-4)GlcNAc6P
In short: as §1

Gal(b1-6)Gal = target: Gal(b1-6)Gal
In short: as §1

Gal3S(b1-3)GalNAc = target: Gal3S(b1-3)GalNAc
In short: as §1

Gal3S(b1-3)GlcNAc = target: Gal3S(b1-3)GlcNAc
In short: as §1

B1: CC1G-10077 (Coprinopsis cinerea), A8NDT7 (protein)
chain: MALNEGVYWIRNSRFTNKVLDLDAANVAKGTSILDFNEHGTFNENHNQLWIVERFQSRDTYLIRSVHSNLVLDLSQGLSANGTPILCWTQHGGTNQQWRIEWVKDDNKTPLYRIVSVATGTAISHNEDDSSAYTVAWSVDDGPKQLWSFDPFVTPLLYRLRVKSTSRVLDLAAASADNGTLALAWEQHTAITKRNQLWWLPYRSGAEEYTIQCLETSTVADLSGGNSGNGTPIYGWQSHGGRNQQWKFEPTSDSGDYYHIKNVEGGSVMDAYMNDSQKRVGGWSNNGGDNQKWLLDPLPSPGPGWVLIQNGGTGKFLCSTPSGDIGTADGPETVYDYSVQWRFIQREYTGVYHVVNRATGAYLRQIGTSMPSIGLAEENDDELKDWWMLETYDNSEIGLASIISRWTGNVLDHYGGVSVQALDNNTENSYRSWAIIPARDWLTSFSLVNGQGGLCLAAQYAREETRLSTTANVNDFHAQWVFRKPSGSSGYTIQNKYNNHYVGGTSARWELVVCCNKYFGIRNTSTQKYLAIEDGQVTFQDQDMTDRKQCWELCSGRATDTSGNDYDLIYMDDDLLEVMIPWVGDKQGDLKHYIEKRATKKPPKDKGGWQLPAAGLIKKPKFNDIRQLLQELIEQWEWDVVNEEREQIQTLVSIDEAEARRLLGRRPHPDIVAAYQRSRSSTLFRIDRQGYFNIAGDRYVNIQGQYGDDSYFHIALPVGVRFGREQIRRFLRDSLDRSTSVTITPTTCKPPSGGPDYNRDPDSDGDNSWIKWTIAVVGTSAIKHSEL
- glycan array binding signal (z-score) [1]: 2.68
- glycan array binding signal (z-score) [2]: 1.49
- glycan array binding signal (z-score) [3]: 2.43
- glycan array binding signal (z-score) [4]: 0.893
- glycan array binding signal (z-score) [5]: 2.19
- glycan array binding signal (z-score) [6]: 3.5
- glycan array binding signal (z-score) [7]: 3.22
- glycan array binding signal (z-score) [8]: 2.97
- glycan array binding signal (z-score) [9]: 3.19
- glycan array binding signal (z-score) [10]: 2.98
- glycan array binding signal (z-score) [11]: 3.72
- glycan array binding signal (z-score) [12]: 3.04
- glycan array binding signal (z-score) [13]: 3.25
- glycan array binding signal (z-score) [14]: 1.06
- glycan array binding signal (z-score) [15]: 0.656
- glycan array binding signal (z-score) [16]: 0.93
- glycan array binding signal (z-score) [17]: 0.529
- glycan array binding signal (z-score) [18]: 1.72
- glycan array binding signal (z-score) [19]: 0.365
- glycan array binding signal (z-score) [20]: 0.973
- glycan array binding signal (z-score) [21]: 1.18
- glycan array binding signal (z-score) [22]: 3.85
- glycan array binding signal (z-score) [23]: 2.58
- glycan array binding signal (z-score) [24]: 1.43
- glycan array binding signal (z-score) [25]: 1.64
- glycan array binding signal (z-score) [26]: 1.48
- glycan array binding signal (z-score) (Gal(b1-4)GlcNAc6P): -0.313
- glycan array binding signal (z-score) (Gal(b1-6)Gal): -0.389
- glycan array binding signal (z-score) (Gal3S(b1-3)GalNAc): -0.424
- glycan array binding signal (z-score) (Gal3S(b1-3)GlcNAc): -0.597

— the supplement of paper PMC8728848
